Reference: PubChem BioAssay AID686979 (National Center for Advancing Translational Sciences (NCATS), 2013)
Several values for one entry are separate records, joined by “and”; a condition that tells them apart may be missing. Equal values may be shown once. Out of some 420,000 compounds screened, about 50,000 (12%) were called active. Inconclusive results, whose numbers are uncertain, are shown with a selection of clear calls. Calls come from the whole dose curve; as a rule, active = well fitted inhibition curve with a large enough effect; inconclusive = small, poorly fitted or top-dose-only effect; inactive = flat fitted curve, though single readings scatter. Potencies of inconclusive entries are left out as doubtful fits.

assay: qHTS for Inhibitors of human tyrosyl-DNA phosphodiesterase 1 (TDP1): qHTS in cells in presence of CPT; details: chicken DT40 Tdp1-/-;hTDP1 cells + 20 nM CPT, ATP luminescence, 48 h; series mostly up to 46.2 µM; note: nearly all actives have a fitted effect of over 55% in size
How it was run: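 Cell growth measured by CellTiter-Glo luminescence after a minimum 48 h, 37 C compound exposure with 20 nM CPT in Tdp1-knockout DT40 cells stably expressing hTDP1, seeded 400/well; qHTS titration format.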
Potency is the fitted concentration of half-maximal effect; tags give direction and shape of the fitted curve.

| SMILES | Potency |
| --- | --- |
| CCCCn1c2ccc(F)cc2c2nnc(NN)nc21 | active: 18.4 µM |
| O=C(NCCCN1CCOCC1)c1cc2c(=O)[nH]c3ccccc3c2s1 | inconclusive [inhibitor, single point] |
| OCC1(CCOc2ccccc2)CCN(C2Cc3ccccc3C2)CC1 | inconclusive [inhibitor, partial curve] |
| CCCOc1cccc(C(=O)N(Cc2ccc(C)o2)C2CCS(=O)(=O)C2)c1 (stereo not drawn) | inconclusive [inhibitor, single point] |
| O=C(NN1C(=O)c2ccccc2NC1c1ccccn1)c1ccccc1 (stereo not drawn) | active: 16.4 µM |
| CC=CCn1c(SCCCc2ccccc2)nc2c1c(=O)[nH]c(=O)n2C | active: 20.6 µM |
| Cc1cccc(NC(=O)c2cc(-c3cc(C)cc(C)c3O)n[nH]2)c1 | inconclusive [inhibitor, single point] |
| Cc1cc(Br)ccc1NC(=S)Nc1cccc([N+](=O)[O-])c1 | inconclusive [inhibitor, single point] |
| CC(=O)CCc1ccc(OCCCCN2CCC(Cc3ccccc3)CC2)cc1 | inactive |
| O=C1C2C(C(=O)N1/N=C/c1cc([N+](=O)[O-])c(O)cc1O)C1C=CC2C12CC2 (stereo not drawn) | inactive |
| O=C(NCc1nc2ccccc2[nH]1)C1=C[C@H](c2coc3ccccc3c2=O)C[C@H](OCc2ccc(CO)cc2)O1 | inconclusive [inhibitor, single point] |
| Cc1cccc(C(=O)Nc2nnc(SCC(=O)NCc3ccco3)s2)c1 | inactive |
| COc1ccc2[nH]c3c(=O)n4c(nc3c2c1)SCC4 | inactive |
| Cc1nn2c(c1-c1ccc(Cl)cc1)N=C(c1ccco1)CC2c1ccccc1 (stereo not drawn) | active: 14.6 µM |
| COc1cc(NC(=O)CC2C(=O)N(c3cccc(C)c3)C(=O)N2Cc2ccc(F)cc2)cc(OC)c1 (stereo not drawn) | inconclusive [inhibitor, single point] |
| CCOC(=O)c1ccccc1NC(=O)COC(=O)C(CCSC)NC(=O)COc1ccccc1 (stereo not drawn) | inconclusive [inhibitor, partial curve] |
| CCOC(=O)c1ccccc1OCc1cc(/C=N/n2cnnc2)ccc1OC | inconclusive [inhibitor, single point] |
| O=C(CCl)N1c2ccccc2Sc2ccc3ccccc3c21 | active: 3.66 µM |
| CCOC(=O)c1cc2c(=O)n3ccccc3nc2n(CC(C)C)c1=NC(=O)c1c(-c2c(F)cccc2Cl)noc1C | active: 16.4 µM and active: 8.2 µM |
| CSc1ccccc1NC(=O)COC(=O)c1ccc(-n2nc(C)cc2C)cc1 | inactive |
| COc1ccc(-c2[nH]ncc2CN2CCN(C(=O)c3ccco3)CC2)cc1F | inactive |
| Cc1ccc2c(CC(=O)Nc3ccc(N4CCN(C)CC4)cc3C)coc2c1 | inconclusive [inhibitor, single point] |
| O=C(NN=Cc1ccc(F)cc1)C1CC1 | inactive |
| CCCC1CC(C(=O)NC(C(C)Cl)C2OC(SC)C(O)C(O)C2O)N(C)C1 (stereo not drawn) | inactive |
| O=C1NC(c2cccc(Br)c2)=N/C1=C\c1ccco1 | inconclusive [inhibitor, partial curve, poor fit] |

| SMILES | Potency |
| --- | --- |
| CCOC(=O)C(Cc1ccccc1)C(=O)Nc1cccc2ccccc12 (stereo not drawn) | inactive |
| O=C1N=NC(=O)N1c1ccccc1 | inactive |
| CCOc1ccccc1NC(=O)c1cccc2c1C(=O)N(CCOC)C2 | inconclusive [inhibitor, partial curve, poor fit] |
| COCCNc1sc(S(=O)(=O)c2ccc(C)cc2)nc1S(=O)(=O)c1ccc(C)cc1 | inconclusive [inhibitor, single point] |
| CCOC(=O)c1ccccc1NC(=O)C1CCN(c2ncnc3sc(C)c(C)c23)CC1 | active: 23.1 µM |
| CCOc1cc(/C=C(\C#N)C(=O)Nc2cccc(C(=O)O)c2)ccc1OCc1ccccc1Cl | inconclusive [inhibitor, single point] |
| COc1ccccc1N1C(=O)C2CC(C)=C(C)CC2C1=O (stereo not drawn) | inactive |
| Cc1cccc(-n2c(C)cc(C(=O)NC3CCCCC3)c2C)c1 | inconclusive [inhibitor, partial curve, poor fit] |
| CCC(c1nnnn1Cc1ccccc1)N1CCN(C/C=C/c2ccccc2)CC1 (stereo not drawn) | inconclusive [inhibitor, single point] |
| O=c1[nH]c(-c2ccncc2)nc2ccccc12 | active: 20.6 µM |
| CCCCNc1ccc(C(F)(F)F)cc1S(=O)(=O)NCCc1ccc(F)cc1 | active: 18.4 µM |
| COC(=O)[C@]12CCCCC=C1N(CCc1ccc(OC)c(OC)c1)C(=O)[C@H](CC(=O)NCc1ccccc1)C2 | inconclusive [inhibitor, single point] |
| Cc1ccc(CNCCCn2cnc3c(OCc4ccccc4)ncnc32)o1 | inconclusive [inhibitor, single point] |
| Cc1cc(NC(=O)c2coc(=O)c(Br)c2)ccc1C(C)C | active: 0.517 µM |
| CCN(C(=O)C1CCN(S(=O)(=O)c2ccc3c(c2)CCCN3C(C)=O)CC1)c1cccc(C)c1 | inconclusive [inhibitor, single point] |
| O=C(c1ccccc1)N1N=C(c2ccco2)CC1c1cccs1 (stereo not drawn) | inconclusive [inhibitor, single point] |
| O=C(O)COc1ccc(C=C2SC(=S)N(c3ccccc3)C2=O)cc1 | inactive |
| COc1ccccc1OCC(=O)NCC(c1ccc(Cl)cc1)N1CCCCC1 (stereo not drawn) | inconclusive [inhibitor, single point] |
| CCOc1ccc(-c2nnc(-c3cccs3)o2)cc1OCC | inconclusive [inhibitor, single point] |
| CC1CCCCC12NC(=O)N(CC(=O)N1CCc3ccccc3C1)C2=O (stereo not drawn) | inactive |
| CC(=O)c1cccc(NC(=O)CSc2nc(C3CC3)nc3ccccc23)c1 | inconclusive [inhibitor, single point] |
| CCOc1ccc(-c2cccc(NS(=O)(=O)c3c(C)cc(C)cc3C)c2)nn1 | inconclusive [inhibitor, single point] |
| OC(CNC1CCCc2ccccc21)COc1ccc2ccccc2c1 (stereo not drawn) | inconclusive [inhibitor, single point] |
| COc1ccccc1CCNC(=O)C(=O)NCC(c1ccc2c(c1)OCO2)N1CCOCC1 (stereo not drawn) | inconclusive [inhibitor, single point] |
| COc1ccc(NC(=O)N2CCCC3(CCN(C(C)=O)CC3)C2)cc1 | inactive |

| SMILES | Potency |
| --- | --- |
| O=C(CN1CCOCC1)Nc1cccc([N+](=O)[O-])c1 | inactive |
| NC(=O)CC12CC3CC(C1)CC(CC(N)=O)(C3)C2 | inconclusive [inhibitor, full curve, poor fit] |
| CN(C)c1cccc(C(=O)NCCCn2ccc3ccccc32)c1 | inconclusive [inhibitor, single point] |
| O=C(c1ccccc1)N(Cc1cccc(Br)c1)C1CCS(=O)(=O)C1 (stereo not drawn) | inactive |
| CCOC(=O)c1c(NC(C)=O)c2c3c(sc2n1Cc1nc(-c2cccc(Cl)c2)oc1C)CCCC3 | inactive |
| CCc1ccc(CN(C)C(=O)c2cc(S(=O)(=O)N3CCOCC3)ccc2N2CCCC2)cc1 | inconclusive [inhibitor, single point] |
| Cc1cc(Br)ccc1OCc1nc(-c2cccnc2)no1 | inconclusive [inhibitor, single point] |
| CCC(Sc1nc2ccsc2c(=O)n1Cc1ccc(C(=O)O)cc1)C(=O)Nc1ccc(C)c(Cl)c1 (stereo not drawn) | inconclusive [inhibitor, single point] |
| CCOc1ccc(N2C(=O)c3ccccc3C2O)cc1 (stereo not drawn) | inconclusive [inhibitor, single point] |
| Cc1ccc(C(C#N)c2ccc(C(=O)c3ccc(F)cc3)cc2)cc1 (stereo not drawn) | active: 23.1 µM |
| O=C(Nc1cccc([N+](=O)[O-])c1)c1ccccc1 | inactive |
| CCOc1ccc2nc(NC(=O)C3CCN(c4cnccn4)CC3)sc2c1 | inconclusive [inhibitor, single point] |
| CCC(Oc1ccccc1)C(=O)O/N=C(\N)c1ccc(OC)c(OC)c1 (stereo not drawn) | inconclusive [inhibitor, single point] |
| Cc1ccc(C2SCC(=O)N2c2ccccc2)cc1 (stereo not drawn) | inactive |
| COc1ccccc1-n1cnc(N)c1C(=O)c1ccccc1 | active: 9.2 µM |
| [O-][n+]1onc2c1CCc1c-2nn(-c2ccccc2Cl)[n+]1[O-] | active: 13 µM |
| CS(=O)(=O)N1CCC(C(=O)Nc2cccc(Br)c2)CC1 | inactive |
| CC(C)(C)OC(=O)N1CCC(c2c(C(=O)N3CCCCC3)cnn2-c2ccc(Cl)cc2)CC1 | inconclusive [inhibitor, single point] |
| O=C1CC(c2ccccc2)CC(O)=C1C=Nc1ccc(O)cc1 (stereo not drawn) | inconclusive [inhibitor, single point] |
| COc1ccc(Cn2nnnc2CN2CCCCCC2)cc1 | inconclusive [inhibitor, partial curve, poor fit] |
| CCOc1ccc(N2C(=O)CC(Sc3ncccn3)C2=O)cc1 (stereo not drawn) | active: 18.4 µM |
| Cc1ccc(C(=O)Nc2ncnc3sc4c(c23)CCCCC4)cc1 | inconclusive [inhibitor, single point] |
| Cc1c(-c2ccc(Br)cc2)c(=O)oc2ccc(OC(=O)N3CCOCC3)cc12 | inconclusive [inhibitor, single point] |
